Results on 29 compounds are retold here after PubChem BioAssay AID485344 (National Center for Advancing Translational Sciences (NCATS), 2010).

About 6,900 (2%) of roughly 340,000 compounds were called active. Cut-off read from the data, not from the text of the source: active = inhibition above about 30%; inactive = below that, where a call was filed. This is a selection; strong and weak results do not stand in their true shares. Where no call is shown, the source filed none.

The target in this experiment is D(2) dopamine receptor (Homo sapiens) (UniProt P14416). The experiment is described as follows: HTS Assay for Allosteric Antagonists of the Human D2 Dopamine Receptor: Primary Screen for Antagonists. Note: 0% is about no effect. Conditions: HEK293 TREx D2 cells, calcium flux, dopamine EC80; at 10 µM; stronger effect = higher value. Put shortly: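 Tetracycline-induced HEK293 TREx cells expressing D2 receptor forced-coupled to calcium signalling, loaded with no-wash calcium dye. Compounds added and calcium flux read 180 s, then dopamine added at EC80 and read a further 180 s.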
Sequence of UniProt P14416 (P14416 whole entry, looked up): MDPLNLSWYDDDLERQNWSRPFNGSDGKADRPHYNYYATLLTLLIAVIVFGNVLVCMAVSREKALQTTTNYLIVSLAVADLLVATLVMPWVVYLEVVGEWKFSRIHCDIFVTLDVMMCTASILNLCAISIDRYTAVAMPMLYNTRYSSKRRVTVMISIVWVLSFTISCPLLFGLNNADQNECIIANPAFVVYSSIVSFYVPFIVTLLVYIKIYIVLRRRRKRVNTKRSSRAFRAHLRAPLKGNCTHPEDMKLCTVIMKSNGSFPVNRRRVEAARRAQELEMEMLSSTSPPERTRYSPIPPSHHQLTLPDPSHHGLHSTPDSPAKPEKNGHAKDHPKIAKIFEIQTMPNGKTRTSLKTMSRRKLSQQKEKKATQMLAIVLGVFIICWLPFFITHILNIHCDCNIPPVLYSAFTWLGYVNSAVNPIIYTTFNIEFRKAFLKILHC
As to `Cc1cccc(NC(=O)CSc2nc3c(oc4ccccc43)c(=O)n2C(C)C)c1`, the inhibition was -2.1%.

Regarding `CC1=C(C(=O)NCCc2ccc(Cl)cc2)C2(CCCCC2)OC1=O`, the inhibition is -7.81%.

Take `COCCNC(=O)CCCn1c(SCC(=O)Nc2cccc(C)c2)nc2c(sc3ccccc32)c1=O`: the inhibition is -4.61%.

Regarding `COc1cccc(CNC(=O)Cn2ncc3c4ccccc4n(C)c3c2=O)c1`, the inhibition was 1.98%.

On to `COc1ccc(C(=O)c2oc3ccccc3c2NC(=O)COc2c(C)cc(C)cc2C)cc1`, for which the inhibition was determined as 5.56%.

Take `O=c1oc2ccc(Br)cc2cc1-c1nc(-c2ccccc2)no1`: the inhibition was -11.6%.

Consider `CCS(=O)(=O)N1CC(=O)N(c2ccc(C)c(C)c2)C(C)(C(=O)NC2CCCCC2)C1` (centres undefined), for which the inhibition was -9.32%.

On to `CCc1ccc(-c2nc3c(c(SCc4ccc(F)cc4)n2)Cc2c(CO)cnc(C)c2O3)cc1`, for which the inhibition turned out to be 0.507%.

In the case of `Cc1ccc2c(CC(=O)Nc3cc(C(F)(F)F)ccc3Cl)coc2c1C`, the inhibition is -2.77%.

On to `Cc1cc(C)c2c(=O)cc(C(=O)Nc3ccccc3Cl)oc2c1`, for which the inhibition turned out to be 8.73%.

`CCC12CN3CC(CC)(CN(C1)C3c1ccc(OCc3ccccc3)cc1)C2=O` (centres undefined): the inhibition is -6.3%.

Take `CCOC(=O)c1c(C)[nH]c(C)c1S(=O)(=O)N1CCC(C(=O)Nc2ccccn2)CC1`: the inhibition turned out to be 2.03%.

As to `COc1ccc(C2CC(=O)Nc3c2c(=O)nc2c(C)cccn32)cc1` (centres undefined), the inhibition is -0.661%.

`Cc1ccc2oc(=O)n(CCNC(=O)Nc3ccccc3Cl)c2c1`: the inhibition was found to be 21.7%.

Consider `Oc1ccccc1N1CCN(Cc2ncc(-c3ccccc3)o2)CC1`, for which the inhibition is active: 56.9%.

Consider `COc1cc(OC)cc(C(=O)Nc2ccc3nc(N4CCC(C)CC4)cc(C)c3c2)c1`, for which the inhibition is -3.32%.

With `COc1cccc(C(=O)Nc2nnc(S(=O)(=O)N3CCOCC3)s2)c1`, the inhibition is -13.4%.

Turning to `CCCCOc1cccc(C(=O)Nc2cccc3ccc(C)nc23)c1`, the inhibition was -8.73%.

For the compound `Cc1ccc(CS(=O)(=O)Cc2ccc(C(=O)NCCc3ccc(Cl)cc3)o2)cc1`, the inhibition is -7.97%.

For the compound `Cc1cc(=O)[nH]c(-n2nc(C)cc2C)n1`, the inhibition was active: 43.8%.

In the case of `Cc1cc(-c2ccc(C)c(S(=O)(=O)NCc3ccc(Cl)cc3)c2)on1`, the inhibition was -0.801%.

On to `CCCS(=O)(=O)NCCc1csc2nc(-c3ccc(OC)cc3)nn12`, for which the inhibition is -9.33%.

Take `CCc1c(C)nc2nncn2c1Nc1ccc(C)c(F)c1`: the inhibition worked out at 9.06%.

Turning to `Cc1ccccc1CNC(=O)CCCn1nc(C)c2sc3ccccc3c2c1=O`, the inhibition is -9.15%.

Consider `COc1ccc(C2NC(=O)NC(C)=C2C(=O)Nc2cc(C)cc(C)c2)c(OC)c1` (centres undefined), for which the inhibition stood at 2.07%.

As for `CN(Cc1ccccc1)c1ncnc2c1nc1n2CCCC1`, the inhibition is -8.92%.

Consider `COc1ccccc1N(CC(=O)NCCSCc1ccc(Cl)cc1)S(C)(=O)=O`, for which the inhibition was found to be 3.89%.

For the compound `O=C(Cn1nnc2sc3c(c2c1=O)CCCC3)Nc1ccc(F)c(Cl)c1`, the inhibition is -1.2%.

For `COc1cccc(NC(CNS(=O)(=O)c2ccc(C)cc2)c2ccccc2)c1` (centres undefined), the inhibition stood at 9.03%.
